“And” between values parts separate entries of the source, which are not always exact repeats. Identical values can stand only once. About 12,000 (3.5%) of roughly 340,000 compounds were called active. The shares of active, inactive and inconclusive entries below differ from those in the screen. The call rests on the fitted dose curve; in most records, active means well fitted inhibition curve with a large enough effect; inconclusive means small, poorly fitted or top-dose-only effect, or another doubt; inactive means no such curve, though single readings can be large or run the other way. Where the call is inconclusive, the potency comes from a doubtful curve fit.
Assay: qHTS Assay for Inhibitors of Hepatitis C Virus (HCV)
Details: Huh7.5.1 HCVcc-Cre (HCVcc is cell-culture hepatitis C virus) infection, luciferase reporter, 44 h; activity change, negative = inhibition: at 41.8 µM (top of the series)
In short: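 Infectious HCV cell culture screen: compound-treated cells (1,000/well, pre-plated 4 h) are infected with HCVcc-Cre at roughly 0.5 moi and grown 44 h. Infection is quantified by luciferase signal after 15 min substrate incubation at room temperature.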
With COc1ccc(NC(=O)Cc2c[nH]c3ccccc23)cc1S(=O)(=O)N1CCCCC1 the Potency was inconclusive: 17.8 µM [inhibitor, single point]. In the case of c1ccc(OCCn2cnc3ccccc32)cc1, the Potency is reported as inconclusive: 3.55 µM [inhibitor, single point]. For CCOc1ccc(CCNC(=O)CCCn2nc(C)c3c(C)n(-c4ccccc4)nc3c2=O)cc1, the Potency was inconclusive: 10 µM [inhibitor, partial curve]. In the case of Cc1ccccc1CNC(=O)c1ccccc1N(C)S(=O)(=O)c1ccccc1, the “activity change, negative = inhibition” value is reported as inactive: -10.6%. In the case of Cc1nnc(SCC(=O)Nc2nc3ccccc3s2)n(N)c1=O, the “activity change, negative = inhibition” value is reported as inactive: 1.63%. With Cc1cc(C)c(C)c(S(=O)(=O)N2CCN(C(=O)c3ccccn3)CC2)c1C the “activity change, negative = inhibition” value was inactive: -27.3%. With NCC(c1ccccc1)c1c[nH]c2ccccc12 (centres undefined) the Potency was inconclusive: 31.6 µM [inhibitor, single point]. In the case of COc1cc(CNC2CCCC2)c(Br)cc1OCc1ccccc1, the Potency is reported as active: 5.62 µM. For Cc1cc(C(=O)COC(=O)/C=C/c2cccc(F)c2)c(C)n1C, the “activity change, negative = inhibition” value was inactive: -13.1%. In the case of COc1ccc([N+](=O)[O-])cc1NC(=O)C(C)OC(=O)C1c2ccccc2Oc2ccccc21 (centres undefined), the Potency is reported as inconclusive: 3.55 µM [inhibitor, partial curve, poor fit]. With Cc1nn(C)cc1CNC(=O)c1cc2n(n1)C(C(F)(F)F)CC(c1cccs1)N2 (centres undefined) the Potency was inconclusive: 31.6 µM [inhibitor, single point]. In the case of Cc1ccc(C(=O)Nc2ccon2)cc1S(=O)(=O)N1CCOCC1, the “activity change, negative = inhibition” value is reported as inactive: 5.31%. For CC(=O)Nc1ccc(NC(=O)/C(Cl)=C/c2ccccc2)cc1, the Potency was inconclusive: 15.8 µM [inhibitor, partial curve]. In the case of COc1ccc(S(=O)(=O)N2CCC(C(=O)NCc3ccco3)CC2)cc1, the “activity change, negative = inhibition” value is reported as inactive: 20.5%. For OC1(c2cccnc2)CCN(Cc2nnnn2Cc2ccccc2)CC1, the Potency was inconclusive: 5.62 µM [inhibitor, single point]. In the case of COc1ccc([N+](=O)[O-])cc1NC(=O)CC(c1ccccc1)c1ccccc1, the “activity change, negative = inhibition” value is reported as inactive: -28.5%. With COc1ccc(OC)c(N2C(=O)CC(Cc3cc(C)cc(C)c3)C2=O)c1 (centres undefined) the Potency was active: 3.55 µM. For FC(F)(F)c1cc(-c2ccccc2)nc(-n2cc(Cl)cn2)n1, the Potency was inconclusive: 15.8 µM [inhibitor, partial curve, poor fit]. With CCc1nnc(NC(=O)CSc2nnc3c(C)cc4c(C)ccc(C)c4n23)s1 the Potency was inconclusive: 0.316 µM [inhibitor, full curve, poor fit]. In the case of Cc1csc2c(N3CCN(C(=O)c4ccc(C(C)(C)C)cc4)CC3)ncnc12, the Potency is reported as inconclusive: 11.2 µM [inhibitor, single point]. For CC(C)c1ccc(N(CC(=O)NCc2ccco2)C(=O)CCC(=O)Nc2ccccn2)cc1, the Potency was inconclusive: 5.62 µM [inhibitor, single point]. For CC(OC(=O)C1CC(=O)N(Cc2ccccc2)C1)C(=O)Nc1cccc(C#N)c1 (centres undefined), the “activity change, negative = inhibition” value was inactive: 23.6%. With CC(C)CC(=O)Nc1nc(-c2ccc(S(=O)(=O)N3CCOCC3)cc2)cs1 the Potency was inconclusive: 22.4 µM [inhibitor, single point]. In the case of N#Cc1ccc(CSc2nnc(Nc3ccccc3)s2)cc1, the Potency is reported as inconclusive: 14.1 µM [inhibitor, single point]. For CC(C)CN1CCN(Cc2ccc(C(F)(F)F)cc2)CC1CCO (centres undefined), the Potency was inconclusive: 1.58 µM [inhibitor, full curve]. For Cn1c(O)c(N=NC(=S)Nc2ccccc2F)c2cc(S(=O)(=O)N3CCOCC3)ccc21, the Potency was inconclusive: 22.4 µM [inhibitor, single point]. For COc1ccc(NC(=O)CCC(=O)c2cccs2)cc1Cl, the “activity change, negative = inhibition” value was inactive: -0.499%. In the case of COc1ccc(-c2cc(C(=O)N(C)CCc3ccc(OC)c(OC)c3)c3ccccc3n2)cc1, the Potency is reported as inconclusive: 3.16 µM [inhibitor, single point]. In the case of CS(=O)c1ccccc1-c1nc(-c2cc(C(F)(F)F)cc(C(F)(F)F)c2)no1 (centres undefined), the Potency is reported as inconclusive: 10 µM [inhibitor, single point]. With C/C(=C\C(=O)c1ccc(Br)cc1)NNC(=O)c1ccccc1 the “activity change, negative = inhibition” value was inactive: -83.5%. With COc1ccc(C(c2c(NC(=O)c3ccco3)sc(C)c2C)N2CCOCC2)cc1OC (centres undefined) the Potency was inconclusive: 22.4 µM [inhibitor, single point]. For CCc1cc([N+](=O)[O-])cc(CC)c1N, the Potency was active: 11.2 µM. With COc1ccccc1Nc1nc(N)nc(CN2CCc3ccccc3C2)n1 the Potency was inconclusive: 10 µM [inhibitor, single point]. For CCCCN(C)CCn1c(=S)[nH]c2ccc(N3CCOCC3)cc2c1=O, the Potency was inconclusive: 11.2 µM [inhibitor, single point]. With CC1CCN(C(=O)c2ccc(NC3=C(Cl)C(=O)N(Cc4ccccc4)C3=O)cc2)CC1 the Potency was inconclusive: 31.6 µM [inhibitor, single point]. With Cc1ccc(C(NC(=O)c2ccccc2)C(Cl)(Cl)Cl)cc1 (centres undefined) the Potency was inconclusive: 10 µM [inhibitor, partial curve]. With COc1ccc(NC(=O)Cc2coc3ccc4ccccc4c23)cc1S(=O)(=O)N1CCOCC1 the Potency was inconclusive: 31.6 µM [inhibitor, single point]. For Cc1cccc(NS(=O)(=O)c2ccc(C)c(C(=O)NC3CCN(Cc4ccccc4)CC3)c2)c1, the Potency was inconclusive: 14.1 µM [inhibitor, single point]. For O=C(Nc1ccc(Br)cc1)C1OCCc2ccccc21 (centres undefined), the Potency was inconclusive: 31.6 µM [inhibitor, single point]. In the case of C#CCN1C=C(C(=O)OCC)C(C)N(Cc2ccccc2I)S1(=O)=O (centres undefined), the Potency is reported as inconclusive: 10 µM [inhibitor, partial curve]. In the case of COc1ccc(NC(=S)NCCC(c2ccccc2)c2ccccc2)c(OC)c1, the Potency is reported as inconclusive: 22.4 µM [inhibitor, partial curve, poor fit]. With CCOc1ccc(N2C(=O)CC(Sc3ccccc3C(=O)O)C2=O)c([N+](=O)[O-])c1 (centres undefined) the “activity change, negative = inhibition” value was inactive: -5.87%. In the case of NCCc1cc(O)c(O)cc1O, the Potency is reported as inconclusive: 5.01 µM [inhibitor, single point] and inconclusive: 2.82 µM [inhibitor, single point]. In the case of O=C(NC1CCCCCC1)c1ccc2c(=O)n3c(nc2c1)CCCCC3, the “activity change, negative = inhibition” value is reported as inactive: -27.4%. In the case of O=c1c2ccccc2oc2c1oc1ccccc12, the Potency is reported as inconclusive: 22.4 µM [inhibitor, partial curve]. With COc1ccc(CNC(=O)c2c(C)nc3ccccn23)cc1 the Potency was inconclusive: 31.6 µM [inhibitor, single point]. With O=C(NCC1CCCO1)c1ccc(COc2ccccc2Br)cc1 (centres undefined) the Potency was inconclusive: 15.8 µM [inhibitor, single point]. With O=C1OC[C@@H]2CCCN2C(=O)[C@@H](CC(=O)N(CCO)Cc2ccccc2)C/C=C\C[C@H]1Cc1ccc(F)cc1 the Potency was inconclusive: 0.501 µM [inhibitor, full curve, poor fit]. For O=C(NCCc1c[nH]c2ccccc12)/C(=C\c1cccnc1)NC(=O)c1ccccc1Br, the “activity change, negative = inhibition” value was inactive: -14.6%. In the case of COC(=O)C1=C(c2cc3ccccc3o2)C[C@@H]2CC[C@H]1N2C(=O)NCc1cccc2ccccc12, the Potency is reported as inconclusive: 8.91 µM [inhibitor, partial curve]. For CCOC(=O)CN1C(=O)S/C(=C/c2ccco2)C1=O, the “activity change, negative = inhibition” value was inactive: -6.06%. For CC1NC(C)(C)Cc2c1ccc1ccccc21 (centres undefined), the “activity change, negative = inhibition” value was inactive: -12.1%. For O=C(NCc1cccs1)C(=O)NCC(c1ccco1)N1CCN(c2ccc(F)cc2)CC1 (centres undefined), the Potency was active: 22.4 µM. In the case of COCCCn1c(-c2ccccc2)nc2ccccc2c1=O, the Potency is reported as inconclusive: 5.01 µM [inhibitor, single point]. With CN(C)c1ccc(C(=S)N2CCNCC2)cc1 the “activity change, negative = inhibition” value was inactive: -7.37%. With O=C(c1ccc(Cl)s1)N1CCN(c2ccccc2)CC1 the Potency was inconclusive: 22.4 µM [inhibitor, single point]. In the case of NC(=O)C1(N2CCCCC2)CCN(c2nc(-c3ccc(Br)cc3)cs2)CC1, the Potency is reported as inconclusive: 2.82 µM [inhibitor, single point]. With N#C/C(=C/C1=C(N2CCOCC2)C(=C/c2ccc(Cl)cc2Cl)/CC1)C(=O)Nc1ccccc1F the “activity change, negative = inhibition” value was inactive: -17.4%. With Nc1nn(-c2ccccc2)nc1C(=O)OCc1ccccc1 the “activity change, negative = inhibition” value was inactive: 4.93%. In the case of COc1ccc(CCNc2oc(COc3ccccc3F)nc2C#N)cc1, the Potency is reported as inconclusive: 8.91 µM [inhibitor, partial curve]. In the case of c1cc(N2CCCC2)ccc1C(c1nnnn1C1CCCCC1)N1CCOCC1 (centres undefined), the Potency is reported as inconclusive: 5.62 µM [inhibitor, single point]. In the case of CCOC(=O)C1(CCc2ccccc2)CCN(C(=O)[C@@H]2C[C@@H](C)NC(=S)N2)CC1, the Potency is reported as inconclusive: 11.2 µM [inhibitor, single point]. In the case of COc1ccc(CNc2ccc(Br)cc2)cc1, the Potency is reported as inconclusive: 31.6 µM [inhibitor, single point]. For N#CC1=C(N)NC(SCc2ccc(F)cc2)=C(C#N)C12CCCCC2, the Potency was inconclusive: 22.4 µM [inhibitor, single point]. For C/C(=N/Nc1nc(-c2ccccc2)cc(-c2ccc(F)cc2)n1)c1cccc(N)c1, the Potency was active: 8.91 µM. For COc1ccc(C(=O)Nc2ccc(N3CCCCC3)cc2)cc1Br, the Potency was inconclusive: 15.8 µM [inhibitor, partial curve, poor fit]. For CC(=O)N1C(=O)N(C)C2C1N(C(C)=O)C(=O)N2C (centres undefined), the “activity change, negative = inhibition” value was inactive: 11.3%. For Cc1cccc(Oc2cnn(C(C)(C)C)c(=O)c2Cl)c1, the Potency was inconclusive: 22.4 µM [inhibitor, single point]. With Cc1ccc(CCC(=O)Nc2ncc(Cc3cc(Cl)ccc3Cl)s2)o1 the Potency was inconclusive: 0.501 µM [inhibitor, full curve, poor fit].
On the % scale 0 is the no-effect control and ±100 the full control effect; potency means the concentration at half of the fitted maximal effect; tags describe the fitted curve by direction and shape.
